{
  "sequences": {"note": "The chains behind the UniProt entries cited, without tags or fusion partners. Where a name states a change or a piece, a line headed by the entry shows the natural chain unless it says otherwise.", "UniProt Q99720": "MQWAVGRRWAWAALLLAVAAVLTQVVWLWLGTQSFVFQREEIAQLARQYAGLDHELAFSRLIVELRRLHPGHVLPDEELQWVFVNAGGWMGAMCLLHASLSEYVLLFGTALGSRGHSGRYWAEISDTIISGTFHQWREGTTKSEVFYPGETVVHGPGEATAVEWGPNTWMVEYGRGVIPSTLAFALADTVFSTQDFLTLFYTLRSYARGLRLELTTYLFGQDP", "UniProt O95166": "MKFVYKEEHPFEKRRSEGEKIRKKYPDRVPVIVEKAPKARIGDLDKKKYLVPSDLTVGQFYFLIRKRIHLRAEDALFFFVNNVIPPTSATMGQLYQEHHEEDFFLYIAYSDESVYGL"},
  "source": "paper PMC12398221",
  "key": {"[1]": {"target": "endogenous sigma-1 receptor (σ1R) (human (endogenous in HeLa)) (UniProt Q99720)", "test": "proximity ligation; Duolink PLA in fixed untransfected HeLa cells with rabbit anti-σ1R and mouse anti-GABARAP; DMSO control"}, "[2]": {"target": "endogenous sigma-1 receptor (σ1R) (human (endogenous in HeLa)) (UniProt Q99720)", "test": "proximity ligation; Duolink PLA in fixed untransfected HeLa cells with rabbit anti-σ1R and mouse anti-GABARAP; cells treated with alazocine (2.5 μM, 2 h)"}, "[3]": {"target": "Myc-FLAG-tagged wild type sigma-1 receptor (σ1R) (human) (UniProt Q99720)", "test": "co-IP; as a2 but cells under basal conditions (untreated); PRE-084 (10 μM, 2 h) gave no increase"}, "[4]": {"target": "Myc-FLAG-tagged wild type sigma-1 receptor (σ1R) (human) (UniProt Q99720)", "test": "co-IP; anti-FLAG M2 magnetic beads, 500 μg lysate of HeLa cells transfected with Myc-FLAG σ1R, 4 °C 60 min, 50 mM Tris pH 7.4, 150 mM NaCl, 0.5% IGEPAL CA-630; cells treated 2 h with blarcamesine (10 μM), alazocine (2.5 μM), H2O2 (50 μM) or bafilomycin A1 (2 μM); immunoblot"}, "[5]": {"target": "Myc-FLAG-tagged σ1R V84L (human) (UniProt Q99720)", "test": "co-IP; anti-FLAG M2 magnetic beads, 500 μg lysate of HeLa cells transfected with Myc-FLAG σ1R, 4 °C 60 min, 50 mM Tris pH 7.4, 150 mM NaCl, 0.5% IGEPAL CA-630; cells treated 2 h with blarcamesine (10 μM), alazocine (2.5 μM), H2O2 (50 μM) or bafilomycin A1 (2 μM); immunoblot"}, "[6]": {"target": "Myc-FLAG-tagged σ1R F83L (human) (UniProt Q99720)", "test": "co-IP; anti-FLAG M2 magnetic beads, 500 μg lysate of HeLa cells transfected with Myc-FLAG σ1R, 4 °C 60 min, 50 mM Tris pH 7.4, 150 mM NaCl, 0.5% IGEPAL CA-630; cells treated 2 h with blarcamesine (10 μM), alazocine (2.5 μM), H2O2 (50 μM) or bafilomycin A1 (2 μM); immunoblot"}},
  "note": "No constants are given. Whether binding was seen depends on the method and setting. Binding seen in cells or lysates may run through a third protein. Some binding calls cover weakened binding; strength is not graded here.",
  "data": [
    {"substance": "endogenous GABARAP (from UniProt O95166 1-117)", "values": [
      {"measurement": "binding", "setting": "[1]", "value": "binds weakly"},
      {"measurement": "binding", "setting": "[2]", "value": "binds"},
      {"measurement": "binding", "setting": "[3]", "value": "binds weakly"},
      {"measurement": "binding", "setting": "[4]", "value": "binds"},
      {"measurement": "binding", "setting": "[5]", "value": "no binding"},
      {"measurement": "binding", "setting": "[6]", "value": "no binding"}
    ]}
  ]
}
